Experimental data reported in publication PMC11109194.
Substitutions are numbered along the chain they refer to. No constants are given. Whether binding was seen depends on the method and setting. In cells and extracts the contact can be indirect. Some results given as binding are weak or reduced against the parent protein; the word gives no strength. For part of these data: Where a sequence is shown, tags or fusion partners need not be part of it. Values belong to the binder of their own block, whether it stands above or below them.

What was measured:
[1] = target: T1, HA-TAK1 (transforming growth factor β-activated kinase) (UniProt Q62073); experiment: co-IP; supplementary panels (Fig. S7b-d, S8a, S8c-d, S9a-b) whose legends were not shown; cells and tags not stated; with or without TIGAR overexpression
T1 sequence: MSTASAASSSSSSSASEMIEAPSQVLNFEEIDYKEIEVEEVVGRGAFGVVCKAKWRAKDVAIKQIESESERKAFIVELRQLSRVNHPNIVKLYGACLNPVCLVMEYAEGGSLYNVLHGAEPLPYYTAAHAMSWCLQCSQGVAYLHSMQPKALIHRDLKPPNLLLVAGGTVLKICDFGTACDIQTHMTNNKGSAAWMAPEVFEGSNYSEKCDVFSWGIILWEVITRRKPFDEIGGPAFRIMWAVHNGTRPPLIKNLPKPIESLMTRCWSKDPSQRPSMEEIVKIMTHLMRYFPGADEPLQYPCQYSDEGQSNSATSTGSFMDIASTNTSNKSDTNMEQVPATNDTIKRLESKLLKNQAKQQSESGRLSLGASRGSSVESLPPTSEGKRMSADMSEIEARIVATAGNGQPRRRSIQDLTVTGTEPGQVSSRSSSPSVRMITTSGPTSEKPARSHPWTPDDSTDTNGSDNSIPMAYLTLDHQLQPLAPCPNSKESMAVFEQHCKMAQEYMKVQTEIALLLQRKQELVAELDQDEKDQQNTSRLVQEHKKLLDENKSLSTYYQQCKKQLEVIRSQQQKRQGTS

[2] = target: T2, HA-TRAF6 (tumor necrosis factor receptor-associated factor 6) (UniProt P70196); experiment: as above
T2 sequence: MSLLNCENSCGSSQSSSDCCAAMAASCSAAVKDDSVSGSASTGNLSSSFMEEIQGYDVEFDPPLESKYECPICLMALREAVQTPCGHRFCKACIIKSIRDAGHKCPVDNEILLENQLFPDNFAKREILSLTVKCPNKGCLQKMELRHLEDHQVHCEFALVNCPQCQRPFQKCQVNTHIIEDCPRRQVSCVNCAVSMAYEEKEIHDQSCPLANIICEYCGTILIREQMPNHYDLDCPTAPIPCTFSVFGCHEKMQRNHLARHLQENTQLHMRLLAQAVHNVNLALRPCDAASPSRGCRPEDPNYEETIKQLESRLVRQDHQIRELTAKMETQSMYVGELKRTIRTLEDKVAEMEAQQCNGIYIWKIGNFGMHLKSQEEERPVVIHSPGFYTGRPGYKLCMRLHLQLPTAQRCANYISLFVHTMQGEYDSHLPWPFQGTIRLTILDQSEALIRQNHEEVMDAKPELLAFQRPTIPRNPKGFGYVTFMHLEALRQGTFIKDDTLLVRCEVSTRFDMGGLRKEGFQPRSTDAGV

[3] = target: T3, endogenous TAK1 (mouse (endogenous in BMDMs)) (UniProt Q62073); experiment: co-IP; endogenous proteins in murine BMDMs (WT or Tigar KO), with or without LPS (100 ng/ml, 30 min); IP with anti-TAK1 or anti-TRAF6 antibody, western blot
T3 sequence: T1 sequence

[4] = target: T1, HA-TAK1 (transforming growth factor β-activated kinase); experiment: co-IP; HEK293 cells co-transfected with tagged plasmids; lysate incubated with the indicated antibody overnight at 4 °C, protein A/G plus agarose beads, western blot; in some panels a third protein co-expressed, or cells incubated with 5Z-7-OX (0.1, 0.3 or 1 mM, 12 h)
[5] = target: T2, HA-TRAF6 (tumor necrosis factor receptor-associated factor 6); experiment: as above
[6] = target: T4, TRAF6 (332–530) (UniProt P70196); experiment: co-IP; supplementary panels (Fig. S7b-d, S8a, S8c-d, S9a-b) whose legends were not shown; cells and tags not stated; with or without TIGAR overexpression
T4 sequence: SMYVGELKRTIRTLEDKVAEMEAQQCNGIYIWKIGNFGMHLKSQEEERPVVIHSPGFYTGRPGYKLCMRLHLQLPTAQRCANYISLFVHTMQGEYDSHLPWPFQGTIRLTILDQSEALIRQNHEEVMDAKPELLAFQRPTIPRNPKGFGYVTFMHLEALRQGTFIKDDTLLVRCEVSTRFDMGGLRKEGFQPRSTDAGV

[7] = target: T5, His-TRAF6 (tumor necrosis factor receptor-associated factor 6) (UniProt P70196); experiment: co-IP; HEK293 cells co-transfected with tagged plasmids; lysate incubated with the indicated antibody overnight at 4 °C, protein A/G plus agarose beads, western blot; in some panels a third protein co-expressed, or cells incubated with 5Z-7-OX (0.1, 0.3 or 1 mM, 12 h)
T5 sequence: T2 sequence

[8] = target: T6, endogenous TRAF6 (mouse (endogenous in BMDMs)) (UniProt P70196); experiment: co-IP; endogenous proteins in murine BMDMs (WT or Tigar KO), with or without LPS (100 ng/ml, 30 min); IP with anti-TAK1 or anti-TRAF6 antibody, western blot
T6 sequence: T2 sequence

B3: TIGAR (1–210) (domain or fragment, UniProt Q8BZA9 1-210)
chain: MPRFALTVIRHGETRLNKEKIIQGQGVDAPLSETGFRQAAAAGQFLSNVQFTHAFSSDLTRTKQTIHGILEKSRFCKDMAVKYDSRLRERMYGVAEGKPLSELRAMAKAAGEECPMFTPPGGETVEQVKMRGKDFFDFICQLILGKAGQRESVLPGAPGSGLESSLAEVFPVGKHGSLGANPKGGTLGLAASILVVSHGAYMRSLFGYFL
binding [4]: binds
binding [5]: binds

B4: TAK1 (1–300) (domain or fragment, UniProt Q62073 1-300)
chain: MSTASAASSSSSSSASEMIEAPSQVLNFEEIDYKEIEVEEVVGRGAFGVVCKAKWRAKDVAIKQIESESERKAFIVELRQLSRVNHPNIVKLYGACLNPVCLVMEYAEGGSLYNVLHGAEPLPYYTAAHAMSWCLQCSQGVAYLHSMQPKALIHRDLKPPNLLLVAGGTVLKICDFGTACDIQTHMTNNKGSAAWMAPEVFEGSNYSEKCDVFSWGIILWEVITRRKPFDEIGGPAFRIMWAVHNGTRPPLIKNLPKPIESLMTRCWSKDPSQRPSMEEIVKIMTHLMRYFPGADEPLQY
binding [6]: binds

B5: His-TAK1 (transforming growth factor β-activated kinase) (protein, UniProt Q62073 1-579)
chain: T1 sequence
binding [5]: binds
binding [2]: binds

B6: HA-TAK1 (transforming growth factor β-activated kinase) (protein, UniProt Q62073 1-579)
chain: T1 sequence
binding [7]: binds

Now from value to binder, other results behind:

binding [1]: binds
B1: TIGAR mutant (TMU) (protein, UniProt Q8BZA9 1-269)
chain: MPRFALTVIRAGETRLNKEKIIQGQGVDAPLSETGFRQAAAAGQFLSNVQFTHAFSSDLTRTKQTIHGILEKSRFCKDMAVKYDSRLRERMYGVAEGKPLSALRAMAKAAGEECPMFTPPGGETVEQVKMRGKDFFDFICQLILGKAGQRESVLPGAPGSGLESSLAEVFPVGKHGSLGANPKGGTLGLAASILVVSAGAYMRSLFGYFLSDLRCSLPGARDKLELSSITPNTGISVFIIDCEEARQPSIQCVCMNLQEHLNGVTEKQH
binding [2]: binds

binding [3]: binds
B2: endogenous TIGAR (protein, UniProt Q8BZA9 1-269)
chain: B1 chain with A11H, A102E, A198H

binding [8]: binds
B7: endogenous TAK1 (enzyme, UniProt Q62073 1-579)
chain: T1 sequence

binding [4]: no binding
B8: TIGAR (211–269) (domain or fragment, UniProt Q8BZA9 211-269)
chain: SDLRCSLPGARDKLELSSITPNTGISVFIIDCEEARQPSIQCVCMNLQEHLNGVTEKQH
binding [5]: no binding
